M. abscessus ATCC 19977 and its deletion, point and complemented mutants after 5 days of drug at 37 °C plus 24 h of resazurin. Growth in % of untreated wells at the dose given (lower = more inhibition); checkerboards give % inhibition (higher = more inhibition); IC50 from the fitted curve (lower = more potent). No active / inactive call. IC50 values come from the same 384-well curves. Growth is not capped and can exceed 100%. The direction of the checkerboard scale is read from the raw signals. Capreomycin is a mixture.
Legend:
Test in all cases: growth relative to untreated wells; higher = more growth (less inhibition)
[1] = system: Mycobacterium abscessus ATCC 19977 Eis2 E120fs
Experimental: (§1)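 384-well two-fold dose series, two replicates; 5 days at 37 °C, then 24 h with resazurin; fluorescence scaled to growth and killed controls.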

[2] = system: Mycobacterium abscessus ATCC 19977 Eis2 T258R
Experimental: as §1

[3] = system: Mycobacterium abscessus ATCC 19977 Eis2 Y227D
Experimental: as §1

[4] = system: Mycobacterium abscessus ATCC 19977 Eis2 Y255*
Experimental: as §1

[5] = system: Mycobacterium abscessus ATCC 19977 Eis2 Y284*
Experimental: as §1

[6] = system: Mycobacterium abscessus ATCC 19977 WhiB7 A51T
Experimental: as §1

[7] = system: Mycobacterium abscessus ATCC 19977 WhiB7 F24fs
Experimental: as §1

[8] = system: Mycobacterium abscessus ATCC 19977 WhiB7 L37P
Experimental: as §1

[9] = system: Mycobacterium abscessus ATCC 19977 WhiB7 T70fs
Experimental: as §1

[10] = system: Mycobacterium abscessus ATCC 19977 Δeis2
Experimental: as §1

[11] = system: Mycobacterium abscessus ATCC 19977 ΔwhiB7
Experimental: as §1

[12] = system: Mycobacterium abscessus ATCC 19977
Experimental: as §1

NC[C@H]1O[C@H](O[C@H]2[C@H](O)[C@@H](O[C@H]3O[C@H](CO)[C@@H](O)[C@H](N)[C@H]3O)[C@H](N)C[C@@H]2N)[C@H](N)[C@@H](O)[C@@H]1O [kanamycin B]
Details | growth [%]
[1], 0.03125 µg/mL | 114
[1], 0.0625 µg/mL | 113
[1], 0.125 µg/mL | 117
[1], 0.25 µg/mL | 121
[1], 0.5 µg/mL | 122
[1], 1 µg/mL | 137
[1], 2 µg/mL | 150
[1], 4 µg/mL | 2.59
[1], 8 µg/mL | -0.378
[1], 16 µg/mL | 0.0344
[1], 32 µg/mL | 0.944
[1], 64 µg/mL | 1.33
[2], 0.03125 µg/mL | 107.9
[2], 0.0625 µg/mL | 117.8
[2], 0.125 µg/mL | 115.5
[2], 0.25 µg/mL | 117
[2], 0.5 µg/mL | 120
[2], 1 µg/mL | 130
[2], 2 µg/mL | 102
[2], 4 µg/mL | 0.977
[2], 8 µg/mL | -1.2
[2], 16 µg/mL | -1.04
[2], 32 µg/mL | -0.669
[2], 64 µg/mL | 0.385
[3], 0.03125 µg/mL | 110
[3], 0.0625 µg/mL | 117
[3], 0.125 µg/mL | 116
[3], 0.25 µg/mL | 118.1
[3], 0.5 µg/mL | 116
[3], 1 µg/mL | 137
[3], 2 µg/mL | 143.1
[3], 4 µg/mL | 1.32
[3], 8 µg/mL | 0.804
[3], 16 µg/mL | 1.13
[3], 32 µg/mL | 1.66
[3], 64 µg/mL | 2.76
[4], 0.03125 µg/mL | 115
[4], 0.0625 µg/mL | 114.8
[4], 0.125 µg/mL | 115
[4], 0.25 µg/mL | 119.7
[4], 0.5 µg/mL | 130
[4], 1 µg/mL | 134
[4], 2 µg/mL | 123
[4], 4 µg/mL | -1.09
[4], 8 µg/mL | -1.88
[4], 16 µg/mL | -1.65
[4], 32 µg/mL | -1.24
[4], 64 µg/mL | -0.445
[5], 0.03125 µg/mL | 113
[5], 0.0625 µg/mL | 112.3
[5], 0.125 µg/mL | 111
[5], 0.25 µg/mL | 111
[5], 0.5 µg/mL | 118
[5], 1 µg/mL | 129.1
[5], 2 µg/mL | 120
[5], 4 µg/mL | -0.379
[5], 8 µg/mL | -0.717
[5], 16 µg/mL | 5.84
[5], 32 µg/mL | 0.0245
[5], 64 µg/mL | 1.02
[6], 0.03125 µg/mL | 107
[6], 0.0625 µg/mL | 123
[6], 0.125 µg/mL | 107
[6], 0.25 µg/mL | 116
[6], 0.5 µg/mL | 123
[6], 1 µg/mL | 132
[6], 2 µg/mL | 2.15
[6], 4 µg/mL | -0.466
[6], 8 µg/mL | -0.664
[6], 16 µg/mL | -0.101
[6], 32 µg/mL | 0.369
[6], 64 µg/mL | 0.893
[7], 0.03125 µg/mL | 122
[7], 0.0625 µg/mL | 118
[7], 0.125 µg/mL | 116
[7], 0.25 µg/mL | 123
[7], 0.5 µg/mL | 127
[7], 1 µg/mL | 130
[7], 2 µg/mL | 0.901
[7], 4 µg/mL | -0.157
[7], 8 µg/mL | -0.149
[7], 16 µg/mL | 0.11
[7], 32 µg/mL | -0.155
[7], 64 µg/mL | 1.58
[8], 0.03125 µg/mL | 116
[8], 0.0625 µg/mL | 130
[8], 0.125 µg/mL | 123
[8], 0.25 µg/mL | 129
[8], 0.5 µg/mL | 127.7
[8], 1 µg/mL | 132
[8], 2 µg/mL | -0.32
[8], 4 µg/mL | -0.0836
[8], 8 µg/mL | -0.251
[8], 16 µg/mL | -0.108
[8], 32 µg/mL | -0.0763
[8], 64 µg/mL | 1.39
[9], 0.03125 µg/mL | 111
[9], 0.0625 µg/mL | 115
[9], 0.125 µg/mL | 112
[9], 0.25 µg/mL | 110.2
[9], 0.5 µg/mL | 123
[9], 1 µg/mL | 130
[9], 2 µg/mL | 3.24
[9], 4 µg/mL | -3.61
[9], 8 µg/mL | -2.63
[9], 16 µg/mL | -2.4
[9], 32 µg/mL | -2.14
[9], 64 µg/mL | -0.817
[10], 0.03125 µg/mL | 103.2
[10], 0.0625 µg/mL | 106
[10], 0.125 µg/mL | 104.3
[10], 0.25 µg/mL | 106
[10], 0.5 µg/mL | 107
[10], 1 µg/mL | 129
[10], 2 µg/mL | 107
[10], 4 µg/mL | -0.708
[10], 8 µg/mL | -1.03
[10], 16 µg/mL | -0.75
[10], 32 µg/mL | -0.267
[10], 64 µg/mL | 0.368
[11], 0.03125 µg/mL | 120.9
[11], 0.0625 µg/mL | 113
[11], 0.125 µg/mL | 111
[11], 0.25 µg/mL | 129
[11], 0.5 µg/mL | 149.5
[11], 1 µg/mL | 158
[11], 2 µg/mL | -1.87
[11], 4 µg/mL | -1.99
[11], 8 µg/mL | -2.09
[11], 16 µg/mL | -1.86
[11], 32 µg/mL | -1.6
[11], 64 µg/mL | -0.665
[12], 0.03125 µg/mL | 113
[12], 0.0625 µg/mL | 118
[12], 0.125 µg/mL | 112
[12], 0.25 µg/mL | 116
[12], 0.5 µg/mL | 119
[12], 1 µg/mL | 121
[12], 2 µg/mL | 125
[12], 4 µg/mL | 131
[12], 8 µg/mL | 16.1
[12], 16 µg/mL | 0.479
[12], 32 µg/mL | 0.336
[12], 64 µg/mL | 1.31

Source: the supplement of paper PMC12578646, “Prodrug florfenicol amine is activated by intrinsic resistance to target Mycobacterium abscessus” (Nature Microbiology, 2025)
